Source: article PMC5823876
These are yes or no findings as the source states them, for the method shown. In cells and extracts the contact can be indirect. Some binding calls cover weakened binding; strength is not graded here.

Chains of the proteins cited; added tags and fusions are not shown. Lines headed by an entry give the natural chain unless they say otherwise; changes in a name come on top. A line that says so, or that is headed by a name, gives the form on record, which may keep a tag or linker. Residues count along the entry.
UniProt Q5S007: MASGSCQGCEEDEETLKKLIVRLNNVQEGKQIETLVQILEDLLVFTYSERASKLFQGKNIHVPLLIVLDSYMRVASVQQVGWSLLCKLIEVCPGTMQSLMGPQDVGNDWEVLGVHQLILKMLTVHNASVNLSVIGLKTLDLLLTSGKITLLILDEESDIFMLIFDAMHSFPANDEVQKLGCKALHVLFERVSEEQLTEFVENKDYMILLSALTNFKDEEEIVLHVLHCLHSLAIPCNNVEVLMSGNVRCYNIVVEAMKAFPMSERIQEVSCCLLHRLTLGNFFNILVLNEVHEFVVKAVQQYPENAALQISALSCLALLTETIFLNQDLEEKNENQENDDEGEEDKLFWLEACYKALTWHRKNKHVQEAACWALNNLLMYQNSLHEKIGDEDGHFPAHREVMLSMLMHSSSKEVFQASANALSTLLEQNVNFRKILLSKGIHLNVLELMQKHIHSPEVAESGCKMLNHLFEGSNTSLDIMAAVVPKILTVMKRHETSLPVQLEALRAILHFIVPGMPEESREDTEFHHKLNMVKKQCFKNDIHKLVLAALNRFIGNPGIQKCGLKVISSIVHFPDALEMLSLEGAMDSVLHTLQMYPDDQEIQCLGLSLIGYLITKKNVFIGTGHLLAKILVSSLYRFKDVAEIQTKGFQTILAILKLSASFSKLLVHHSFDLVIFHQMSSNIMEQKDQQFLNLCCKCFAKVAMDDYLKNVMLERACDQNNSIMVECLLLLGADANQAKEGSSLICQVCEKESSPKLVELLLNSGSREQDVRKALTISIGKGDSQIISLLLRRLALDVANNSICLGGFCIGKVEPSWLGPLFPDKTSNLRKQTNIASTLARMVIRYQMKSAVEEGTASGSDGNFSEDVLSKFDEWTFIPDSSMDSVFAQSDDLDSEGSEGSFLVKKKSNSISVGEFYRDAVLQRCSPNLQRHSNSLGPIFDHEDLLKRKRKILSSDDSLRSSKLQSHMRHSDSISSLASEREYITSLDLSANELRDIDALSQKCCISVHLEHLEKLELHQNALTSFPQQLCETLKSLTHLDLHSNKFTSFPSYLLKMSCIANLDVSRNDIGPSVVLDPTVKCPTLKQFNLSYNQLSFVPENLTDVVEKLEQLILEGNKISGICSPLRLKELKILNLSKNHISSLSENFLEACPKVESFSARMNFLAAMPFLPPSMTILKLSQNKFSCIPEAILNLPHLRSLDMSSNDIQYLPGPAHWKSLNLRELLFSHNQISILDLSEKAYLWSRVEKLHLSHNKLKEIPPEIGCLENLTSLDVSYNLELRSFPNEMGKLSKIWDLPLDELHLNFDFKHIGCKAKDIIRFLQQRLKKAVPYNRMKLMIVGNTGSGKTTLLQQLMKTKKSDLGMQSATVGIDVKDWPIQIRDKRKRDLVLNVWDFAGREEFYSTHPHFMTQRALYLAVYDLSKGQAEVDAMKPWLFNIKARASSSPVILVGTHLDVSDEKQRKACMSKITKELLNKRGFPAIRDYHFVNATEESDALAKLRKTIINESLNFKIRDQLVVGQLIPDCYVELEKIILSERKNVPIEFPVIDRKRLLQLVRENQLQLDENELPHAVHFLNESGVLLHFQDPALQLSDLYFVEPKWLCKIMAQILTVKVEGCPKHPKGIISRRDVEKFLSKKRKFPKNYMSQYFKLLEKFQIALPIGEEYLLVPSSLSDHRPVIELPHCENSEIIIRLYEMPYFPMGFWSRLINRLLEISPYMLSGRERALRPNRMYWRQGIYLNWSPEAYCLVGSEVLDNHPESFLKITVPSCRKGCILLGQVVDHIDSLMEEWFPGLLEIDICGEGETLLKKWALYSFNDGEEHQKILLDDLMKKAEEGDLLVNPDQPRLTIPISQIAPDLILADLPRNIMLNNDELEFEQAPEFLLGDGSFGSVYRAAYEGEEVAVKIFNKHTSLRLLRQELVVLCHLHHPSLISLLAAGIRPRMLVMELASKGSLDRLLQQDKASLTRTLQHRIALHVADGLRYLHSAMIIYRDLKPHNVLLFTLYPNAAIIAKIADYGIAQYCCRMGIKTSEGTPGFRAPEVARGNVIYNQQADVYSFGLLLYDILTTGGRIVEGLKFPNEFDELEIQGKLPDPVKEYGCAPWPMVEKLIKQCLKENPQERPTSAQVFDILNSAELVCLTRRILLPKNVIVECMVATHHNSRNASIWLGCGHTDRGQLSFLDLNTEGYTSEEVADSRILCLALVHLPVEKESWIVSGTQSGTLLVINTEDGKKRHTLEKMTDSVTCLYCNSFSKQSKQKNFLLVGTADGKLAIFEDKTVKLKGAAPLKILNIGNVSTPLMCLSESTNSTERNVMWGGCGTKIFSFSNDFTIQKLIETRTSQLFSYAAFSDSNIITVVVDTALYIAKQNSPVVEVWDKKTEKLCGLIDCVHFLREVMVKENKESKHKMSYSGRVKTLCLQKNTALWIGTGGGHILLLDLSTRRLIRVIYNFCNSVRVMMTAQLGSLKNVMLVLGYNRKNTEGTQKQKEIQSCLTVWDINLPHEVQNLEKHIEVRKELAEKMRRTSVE
Flag-tagged N-terminal domain of LRRK2 (amino acids 1-969): residues 1-969 of Q5S007
Flag-tagged LRRK2 N-terminal fragment, amino acids 1-575: residues 1-575 of Q5S007
Flag-tagged LRRK2 N-terminal fragment, amino acids 1-550: residues 1-550 of Q5S007
Flag-tagged LRRK2 N-terminal fragment, amino acids 1-500: residues 1-500 of Q5S007
Flag-tagged ROC domain of LRRK2: residues 1328-1511 of Q5S007
Flag-tagged COR domain of LRRK2: residues 1546-1740 of Q5S007
UniProt Q38SD2: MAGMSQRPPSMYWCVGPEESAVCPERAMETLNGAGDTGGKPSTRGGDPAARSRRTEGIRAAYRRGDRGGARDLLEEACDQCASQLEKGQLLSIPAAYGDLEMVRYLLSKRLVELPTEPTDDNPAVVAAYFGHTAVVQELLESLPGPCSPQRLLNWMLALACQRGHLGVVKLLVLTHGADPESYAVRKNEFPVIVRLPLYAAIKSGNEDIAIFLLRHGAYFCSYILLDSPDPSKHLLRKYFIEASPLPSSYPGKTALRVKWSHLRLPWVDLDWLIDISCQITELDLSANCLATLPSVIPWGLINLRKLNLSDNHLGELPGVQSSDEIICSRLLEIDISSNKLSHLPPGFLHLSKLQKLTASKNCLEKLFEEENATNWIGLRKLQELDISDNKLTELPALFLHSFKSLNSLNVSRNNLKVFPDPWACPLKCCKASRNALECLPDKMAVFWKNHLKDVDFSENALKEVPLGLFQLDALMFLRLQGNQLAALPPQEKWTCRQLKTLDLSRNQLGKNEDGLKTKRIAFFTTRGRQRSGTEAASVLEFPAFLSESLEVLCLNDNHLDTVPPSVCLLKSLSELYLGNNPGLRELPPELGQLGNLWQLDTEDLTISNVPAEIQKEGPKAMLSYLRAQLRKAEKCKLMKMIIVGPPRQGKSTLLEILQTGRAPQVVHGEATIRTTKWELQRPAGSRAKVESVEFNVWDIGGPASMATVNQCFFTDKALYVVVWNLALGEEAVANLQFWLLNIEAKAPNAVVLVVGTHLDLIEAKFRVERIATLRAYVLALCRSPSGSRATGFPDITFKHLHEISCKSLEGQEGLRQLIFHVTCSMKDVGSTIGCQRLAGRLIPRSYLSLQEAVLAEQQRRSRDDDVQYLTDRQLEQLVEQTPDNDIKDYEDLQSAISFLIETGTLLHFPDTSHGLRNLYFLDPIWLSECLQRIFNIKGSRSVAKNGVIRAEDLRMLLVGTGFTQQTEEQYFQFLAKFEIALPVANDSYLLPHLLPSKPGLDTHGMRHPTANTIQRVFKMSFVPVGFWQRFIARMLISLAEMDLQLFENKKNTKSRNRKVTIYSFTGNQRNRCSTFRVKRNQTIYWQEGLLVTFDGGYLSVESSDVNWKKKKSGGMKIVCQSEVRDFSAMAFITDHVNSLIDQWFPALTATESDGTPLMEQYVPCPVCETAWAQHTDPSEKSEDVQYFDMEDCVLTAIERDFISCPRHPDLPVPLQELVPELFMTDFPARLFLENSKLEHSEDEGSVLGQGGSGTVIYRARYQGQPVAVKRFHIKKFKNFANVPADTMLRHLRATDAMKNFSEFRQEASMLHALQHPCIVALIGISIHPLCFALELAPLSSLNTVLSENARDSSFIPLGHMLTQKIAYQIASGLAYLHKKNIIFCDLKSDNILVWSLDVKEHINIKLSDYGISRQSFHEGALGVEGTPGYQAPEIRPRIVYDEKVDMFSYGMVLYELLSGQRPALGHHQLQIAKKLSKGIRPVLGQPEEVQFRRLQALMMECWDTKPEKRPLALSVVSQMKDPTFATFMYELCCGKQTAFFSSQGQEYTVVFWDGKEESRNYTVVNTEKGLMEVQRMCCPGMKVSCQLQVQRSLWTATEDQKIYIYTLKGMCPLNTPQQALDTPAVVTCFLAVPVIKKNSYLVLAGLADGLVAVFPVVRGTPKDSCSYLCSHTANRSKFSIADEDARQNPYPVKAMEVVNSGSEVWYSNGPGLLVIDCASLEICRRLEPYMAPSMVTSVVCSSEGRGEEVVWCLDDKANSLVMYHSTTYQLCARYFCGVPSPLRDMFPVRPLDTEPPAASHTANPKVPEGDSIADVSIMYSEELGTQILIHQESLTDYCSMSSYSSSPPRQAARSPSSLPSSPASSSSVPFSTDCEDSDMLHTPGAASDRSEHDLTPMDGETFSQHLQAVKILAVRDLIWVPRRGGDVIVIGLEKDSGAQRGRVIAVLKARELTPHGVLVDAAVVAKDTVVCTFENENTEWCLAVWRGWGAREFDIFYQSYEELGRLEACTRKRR
UniProt Q13158: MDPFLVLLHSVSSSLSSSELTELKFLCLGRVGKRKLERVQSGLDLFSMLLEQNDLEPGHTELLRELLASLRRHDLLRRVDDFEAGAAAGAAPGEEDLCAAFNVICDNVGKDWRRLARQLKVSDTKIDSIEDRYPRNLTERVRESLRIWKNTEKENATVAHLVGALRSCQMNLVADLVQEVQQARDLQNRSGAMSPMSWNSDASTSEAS

How the values were obtained:
[1] = target: Flag-tagged full-length G2019S-LRRK2 (human) (UniProt Q5S007); experiment: co-IP; G2019S-LRRK2 and full length FADD with HA-tagged leucine zipper FADD-DD co-expressed as competitor (Suppl Fig. 9a)
[2] = target: Flag-tagged LRRK2 N-terminal fragment, amino acids 1-500 (human) (UniProt Q5S007); experiment: co-IP; V5-FADD co-expressed with Flag-tagged LRRK1, LRRK2 or LRRK2 fragments in HEK293T; lysate (20 mM HEPES pH 7.4, 150 mM NaCl, 0.1% NP-40, 2 mM EGTA, 2 mM MgCl2, 10% glycerol) on anti-Flag resin at 4 °C; eluates probed with anti-V5
[3] = target: Flag-tagged LRRK2 N-terminal fragment, amino acids 1-550 (human) (UniProt Q5S007); experiment: as above
[4] = target: Flag-tagged LRRK1 (human) (UniProt Q38SD2); experiment: as above
[5] = target: Flag-tagged COR domain of LRRK2 (human) (UniProt Q5S007); experiment: as above
[6] = target: Flag-tagged full-length G2019S-LRRK2 (human) (UniProt Q5S007); experiment: as above
[7] = target: Flag-tagged LRRK2 N-terminal fragment, amino acids 1-575 (human) (UniProt Q5S007); experiment: as above
[8] = target: Flag-tagged N-terminal domain of LRRK2 (amino acids 1-969) (human) (UniProt Q5S007); experiment: as above
[9] = target: Flag-tagged ROC domain of LRRK2 (human) (UniProt Q5S007); experiment: as above
[10] = target: Flag-tagged full-length WT LRRK2 (human) (UniProt Q5S007); experiment: as above

Substance | binding [1] | binding [2] | binding [3] | binding [4] | binding [5] | binding [6] | binding [7] | binding [8] | binding [9] | binding [10]
V5-tagged FADD, full-length, WT (from UniProt Q13158 1-208) | binds | no binding | binds | no binding | no binding | binds | binds | binds | no binding | binds
V5-tagged full-length F25R mutant FADD (from UniProt Q13158 1-208) |  |  |  |  |  | no binding |  |  |  | no binding
